Test results taken from the supplement of paper PMC4967469.
IC50 is the fitted dose that halves viability relative to control wells, and lower means more sensitive; where the fit passes the top or lowest dose, that dose stands as a limit. AUC, from the same fit, is the share of area under the viability curve across the 256-fold dose range: 1 means no effect, lower means more sensitive. For part of these data: Where the top dose is marked as inferred, it is not printed in the source and was worked back from the curve model.

Tests used:
Test in all cases: Viability of human cancer cell lines after 72 h of drug (GDSC screen)
[1] = compound: COc1cc(Nc2c(C#N)cnc3cc(OCCCN4CCN(C)CC4)c(OC)cc23)c(Cl)cc1Cl [Bosutinib]; conditions: top dose 2 µM
Procedure: (§1)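 Human cancer cell lines in 384-well plates, medium with 10% serum, drug for 72 h over a 256-fold dose range (nine 2-fold or five 4-fold steps up to the top dose). Adherent lines were fixed and stained with the nucleic acid dye Syto60, suspension lines read with resazurin; signal relative to control wells, capped at 0 and 100%. One two-parameter sigmoid per drug and line, fitted in a mixed model over all curves with the slope shared within a line.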

[2] = compound: CO[C@@]12[C@H](COC(N)=O)C3=C(C(=O)C(C)=C(N)C3=O)N1C[C@@H]1N[C@@H]12 [Mitomycin C]; conditions: top dose 16 µM
Procedure: as §1

[3] = compound: Cc1ccc(C(=O)Nc2cccc(C(F)(F)F)c2)cc1Nc1nc(-c2cccnc2)nc2c1cnn2C [NVP-BHG712]; conditions: top dose 10.24 µM; top dose inferred
Procedure: as §1

[4] = compound: O=C(O)CNC(=O)c1c(O)c2ccccc2n(Cc2ccccc2)c1=O [IOX2]; conditions: top dose 0.1 µM; top dose inferred
Procedure: as §1

[5] = compound: CC[C@H](CO)Nc1nc(NCc2ccccc2)c2ncn(C(C)C)c2n1 [Roscovitine]; conditions: top dose 16 µM; top dose inferred
Procedure: as §1

[6] = compound: CO[C@@H]1[C@H](N(C)C(=O)c2ccccc2)C[C@H]2O[C@]1(C)n1c3ccccc3c3c4c(c5c6ccccc6n2c5c31)C(=O)NC4 [Midostaurin]; conditions: top dose 0.512 µM; top dose inferred
Procedure: as §1

Cell Line	AUC [1]	IC50 [1] [nM]	AUC [2]	IC50 [2] [nM]	AUC [3]	IC50 [3] [nM]	AUC [4]	IC50 [4] [nM]	AUC [5]	IC50 [5] [nM]	AUC [6]	IC50 [6] [nM]
OS-RC-2 (kidney, adherent)	0.859	> 2000	0.333	278	0.896	> 10200	0.975	> 100	0.828	> 16000	0.808	424
MZ2-MEL (melanoma, adherent)	0.75	756	0.374	423	0.667	2040	0.946	> 100	0.972	> 16000	0.941	> 512
NU-DUL-1 (B-cell lymphoma, suspension)	0.901	1690	0.079	< 62.5	0.428	423	0.99	> 100	0.961	> 16000	0.944	> 512
JiyoyeP-2003 (Burkitt lymphoma, suspension)	0.977	> 2000	0.434	676	0.851	6390	0.989	> 100	0.851	9990	0.959	> 512
NB12 (neuroblastoma, adherent)	0.976	> 2000	0.517	1130	0.916	> 10200	0.977	> 100	0.973	> 16000	0.923	> 512
NB14 (neuroblastoma, adherent)	0.96	> 2000	0.409	572	0.887	> 10200	0.985	> 100	0.987	> 16000	0.929	> 512
COLO-668 (small cell lung carcinoma, adherent)	0.98	> 2000	0.073	< 62.5	0.912	> 10200	0.983	> 100	0.936	> 16000	0.926	> 512
TUR (B-cell lymphoma, suspension)	0.959	> 2000	0.256	213	0.89	10200	0.984	> 100	0.985	> 16000	0.853	354
RH-1 (rhabdomyosarcoma, adherent)	0.961	> 2000	0.171	128	0.871	7010	0.983	> 100	0.974	> 16000	0.923	> 512
ES8 (Ewing sarcoma, adherent)	0.965	> 2000	0.074	< 62.5	0.841	6370	0.986	> 100	0.9	> 16000	0.867	407
VAL (B-cell lymphoma, suspension)	0.844	1440	0.227	160	0.584	1090	0.985	> 100	0.896	> 16000	0.915	> 512
KM-H2 (Hodgkin lymphoma, suspension)	0.991	> 2000	0.189	144	0.941	> 10200	0.993	> 100	0.991	> 16000	0.962	> 512
EM-2 (chronic myeloid leukaemia, suspension)	0.601	246	0.502	1010	0.155	46.1	0.98	> 100	0.976	> 16000	0.943	> 512
JURL-MK1 (chronic myeloid leukaemia, suspension)	0.747	638	0.233	169	0.097	< 40	0.97	> 100	0.974	> 16000	0.94	> 512
LAN-6 (neuroblastoma, adherent)	0.985	> 2000	0.368	403	0.937	> 10200	0.983	> 100	0.96	> 16000	0.985	> 512
PF-382 (T-cell lymphoblastic leukaemia, suspension)	0.928	> 2000	0.288	276	0.538	800	0.99	> 100	0.946	> 16000	0.89	461
TE-8 (oesophagus, adherent)	0.957	> 2000	0.131	< 62.5	0.921	> 10200	0.972	> 100	0.909	> 16000	0.921	> 512
NCI-H1581 (large cell lung carcinoma, semi-adherent)	0.974	> 2000	0.51	1060	0.955	> 10200	0.989	> 100	0.972	> 16000	0.975	> 512
SK-ES-1 (Ewing sarcoma, semi-adherent)	0.879	> 2000	0.091	< 62.5	0.94	> 10200	0.983	> 100	0.89	> 16000	0.89	> 512
Calu-6 (lung adenocarcinoma, adherent)	0.984	> 2000	0.335	324	0.589	1160	0.982	> 100	0.903	> 16000	0.967	> 512
LAMA-84 (chronic myeloid leukaemia, suspension)	0.574	200	0.436	667	0.069	< 40	0.985	> 100	0.985	> 16000	0.949	> 512
